From PMC4336329 (PLoS ONE, 2015)
The campaign covered roughly 310,000 compounds. About 14,000 (4.5%) showed an effect of 50% or more. The effect is printed as a negative number. Some of the results follow.

Biological target: human ether-à-go-go-related gene (hERG) potassium channel (human, UniProt Q12809)
Assay: primary screen, population patch clamp on CHO cells stably expressing hERG
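Further: peak tail current of the secondary pulse compared with the same well before compound.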

human ether-à-go-go-related gene (hERG) potassium channel, sequence (Q12809 whole entry, looked up): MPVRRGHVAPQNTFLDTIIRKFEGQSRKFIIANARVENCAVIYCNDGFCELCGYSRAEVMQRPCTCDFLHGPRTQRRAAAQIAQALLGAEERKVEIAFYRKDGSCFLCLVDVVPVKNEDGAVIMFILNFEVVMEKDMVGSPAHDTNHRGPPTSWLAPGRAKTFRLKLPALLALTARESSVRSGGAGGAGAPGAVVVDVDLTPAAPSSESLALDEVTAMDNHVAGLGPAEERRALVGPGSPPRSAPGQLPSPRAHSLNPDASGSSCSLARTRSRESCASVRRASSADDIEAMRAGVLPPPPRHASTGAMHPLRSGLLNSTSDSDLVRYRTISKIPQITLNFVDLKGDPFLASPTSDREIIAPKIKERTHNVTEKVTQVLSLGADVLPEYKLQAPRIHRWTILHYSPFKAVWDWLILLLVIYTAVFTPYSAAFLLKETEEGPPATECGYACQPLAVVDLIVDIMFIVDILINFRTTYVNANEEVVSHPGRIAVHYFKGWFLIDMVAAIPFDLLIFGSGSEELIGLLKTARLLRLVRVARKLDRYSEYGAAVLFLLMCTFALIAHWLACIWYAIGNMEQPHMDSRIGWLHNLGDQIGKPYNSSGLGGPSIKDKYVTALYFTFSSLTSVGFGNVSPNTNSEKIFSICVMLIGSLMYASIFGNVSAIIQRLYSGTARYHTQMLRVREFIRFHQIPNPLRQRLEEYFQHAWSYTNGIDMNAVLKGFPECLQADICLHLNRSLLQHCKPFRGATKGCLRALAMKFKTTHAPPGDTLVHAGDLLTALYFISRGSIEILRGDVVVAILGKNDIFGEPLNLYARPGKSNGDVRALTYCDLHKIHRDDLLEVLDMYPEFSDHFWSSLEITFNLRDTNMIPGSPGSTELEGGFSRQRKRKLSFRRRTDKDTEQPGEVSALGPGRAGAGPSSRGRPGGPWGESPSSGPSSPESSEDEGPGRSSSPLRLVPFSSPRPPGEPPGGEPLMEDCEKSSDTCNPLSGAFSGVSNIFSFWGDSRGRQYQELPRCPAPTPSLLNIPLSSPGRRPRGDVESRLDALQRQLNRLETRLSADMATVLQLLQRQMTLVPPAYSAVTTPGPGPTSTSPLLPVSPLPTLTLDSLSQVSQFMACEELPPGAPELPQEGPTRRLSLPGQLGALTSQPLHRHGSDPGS

Row | Structure (SMILES) | hERG current change (%, negative = inhibition) at 10uM [%]
1 | COc1ccc(/C=N/n2c(-c3cc(C)[nH]n3)n[nH]c2=S)cc1OC | 18.6
2 | CCOCC(=O)Nc1nnc(Cc2ccc(OC)c(OC)c2)s1 | 1.11
3 | COc1ccc(S(=O)(=O)N(C)C)cc1NC(=O)CSc1ncccn1 | -11.8
4 | CCOC(=O)C1(CCc2ccccc2)CCN(C(=O)c2occc2C)CC1 | -63.3
5 | O=C(/C=C/c1cccnc1)c1ccc([N+](=O)[O-])cc1 | -42.3
6 | Cc1cc(NC(=O)CSCC(=O)N(C)Cc2ccc(Cl)cc2Cl)no1 | -17.2
7 | COc1ccc(-c2ccc(S(=O)(=O)N3CCOCC3)cc2)cc1 | 6.36
8 | COc1ccc(C(=O)NC(=S)NCc2cccnc2)cc1[N+](=O)[O-] | -12.3
9 | CN1CCN(CCOc2ccc(Cl)c(Cl)c2)CC1.O=C(O)C(=O)O | -22.3
10 | Cn1cnnc1SCC(=O)c1c[nH]c2ccccc12 | 14.5
11 | COc1cc(/C=C2\NC(=S)N(C)C2=O)ccc1O | 13.5
12 | Cc1cc(C)nc(SCc2ccc(C(=O)N/N=C/c3cccc(O)c3O)cc2)n1 | -13.3
13 | CCOCCCNC(=O)c1cn(CC)c2ccc(S(=O)(=O)N3CCOCC3)cc2c1=O | -2.23
14 | O=S(=O)(NCc1ccccc1)c1ccc(-n2cccn2)cc1 | -16.6
15 | O=C(NC1CC(=O)N(c2ccc(Cl)cc2)C1)N1CCN(C(=O)c2ccco2)CC1 (stereo not drawn) | -91.6
16 | Cc1ccc(CSc2nnc([C@@H]3CCCN3C(=O)OC(C)(C)C)o2)cc1 | -8.55
17 | CCOc1cc(N2CCOCC2)c(OCC)cc1NC(=O)COc1ncnc2ccccc12 | -30.1
18 | COc1ccc(OC)c2sc(NC(=O)c3ccc(S(=O)(=O)N4CCOCC4)cc3)nc12 | -2.05
19 | CN1CCc2c(c(N3CCCCC3)nc3n[nH]c(N)c23)C1 | -14.5
20 | O=C(CN1CCN(S(=O)(=O)c2ccc(F)c(Cl)c2)CC1)N1CCc2ccccc21 | -34.7
21 | CN1C(=O)c2cccc3c(Cl)ccc(c23)C1=O | -2.92
22 | CN(C)CCNc1c(N)c(=O)oc2ccccc12 | 1.89

Row | Structure (SMILES) | hERG current change (%, negative = inhibition) at 10uM [%]
23 | O=C(CN1C(=O)NC2(CCCC2)C1=O)Nc1nc(-c2ccccc2)cs1 | 25.6
24 | O=C1O/C(=C\C(=O)N2CCOCC2)c2ccccc21 | 9.84
25 | NS(=O)(=O)c1ccc(Sc2ccc3ccccc3c2)nc1 | 14.7
26 | Nc1c(C(=O)Nc2ccc(F)cc2)nnn1-c1cccc(C(F)(F)F)c1 | 11.2
27 | CCOc1ccccc1CN1CCN(Cc2cc3ccccc3[nH]2)CC1CCO (stereo not drawn) | -59.3
28 | O=C1c2ccccc2C2=Nc3ccccc3SC(c3cccc(F)c3)C12 (stereo not drawn) | 11.1
29 | COc1cc(C(=O)Oc2ccc3c(c2)OCC3=O)cc(OC)c1OC | 17.7
30 | COc1cccc(-c2nc(N3CCCC3)c3ccccc3n2)c1O | -5.65
31 | C/C(=N\NC(=S)Nc1ccccc1C)c1ccc(O)cc1 | -20
32 | Cn1c(SCc2ccccc2)nnc1-c1cccs1 | -5.16
33 | Cc1ccccc1C(=O)O/N=C(\N)c1ccncc1 | 15
34 | Cc1ccc(C(C)C)c(OCC#CCN2CCCC2)c1.O=C(O)C(=O)O | -37.9
35 | CC(C)CC1c2[nH]c3ccccc3c2CCN1C(=O)CCC(=O)N(C)C (stereo not drawn) | 3.88
36 | CCOc1ccc(N2CC(O)=C(c3nc4ccccc4c(=O)[nH]3)C2=N)cc1 | 9.77
37 | Cn1c(NC(=O)CCc2ccccc2)cc(=O)n(C)c1=O | -0.422
38 | CCC(C)NC(=O)CCC(=O)Nc1ccc2nc(N3CC(C)CC(C)C3)cc(C)c2c1 (stereo not drawn) | -11.3
39 | O=C(Nc1ccc(NC(=O)c2ccco2)cc1)c1ccc2c(c1)OCO2 | 14.4
40 | CCCNC(=O)N1[C@H]2CC[C@@H]1C(C(=O)OC)=C(c1ccc(F)cc1F)C2 | 3.69
41 | O=[N+]([O-])c1ccc2c(c1)/C(=N\O)c1ccccc1-2 | 7.65
42 | CCOC(=O)/C=C/c1cnn(-c2ccccc2)c1 | 3
43 | O=C(CN1c2ccccc2S(=O)(=O)c2ccccc21)NCc1ccccc1 | 9.11
44 | O=C(CSc1nc(-c2ccco2)cc(C(F)(F)F)n1)N1CCc2ccccc2C1 | -1.87

Row | Structure (SMILES) | hERG current change (%, negative = inhibition) at 10uM [%]
45 | Cc1nn(-c2ccc(Br)cc2)c(=O)c2ccccc12 | 6.19
46 | COc1cc(NC(=O)C2=COCCO2)c(OC)cc1Cl | 9.11
47 | O=C(CC1(O)C(=O)N(C/C=C/c2ccccc2)c2ccccc21)c1ccccn1 (stereo not drawn) | 2.19
48 | Cc1ccc(NC(=O)CSc2nnc(C3CCCCC3)n2N)cc1F | 2.3
49 | Cc1ccc(C)c(OCCn2cc(/C=C(/C#N)C(=O)NCC3CCCO3)c3ccccc32)c1 (stereo not drawn) | 13.5
50 | COc1ccc(C(CC(=O)NCC(OC)OC)NS(=O)(=O)c2ccc(Cl)cc2)cc1 (stereo not drawn) | 3.73
51 | CN(CCCCN1CCOCC1)Cc1nc(-c2ccc3c(c2)OCO3)no1 | -10.5
52 | O=C(CCn1c(=O)[nH]c2ccsc2c1=O)N1CCN(Cc2ccc3c(c2)OCO3)CC1 | -18.2
53 | CCOC(=O)c1sc(=NC(=O)c2ccc(Br)cc2)n(C)c1C | 8.14
54 | COc1ccc(NS(=O)(=O)c2cccc3nonc23)c(OC)c1 | -8.46
55 | CN(C)S(=O)(=O)c1ccc(NC(=O)c2ccc(Br)o2)cc1 | -9.84
56 | Cc1cc(OCC(=O)N2CCOCC2)ccc1[N+](=O)[O-] | 2.35
57 | O=C(NNC(=S)NCc1ccccc1)c1ccc(Br)cc1 | 11.5
58 | Cc1ccc(NC(=O)c2nc[nH]c2C(=O)NCc2ccccc2)cc1 | 1.89
59 | Cn1ncc(Cl)c1C(=O)NCC1CCCO1 (stereo not drawn) | 9.21
60 | Cc1c(C(=O)Nc2ccc(Cl)cn2)oc2ccccc12 | 16.8
61 | O=C(/C(=C/c1ccc(Cl)cc1)c1nc2ccccc2[nH]1)c1cccs1 | 2.82
62 | CN(Cc1nc(-c2ccc(Cl)cc2)no1)C(=O)c1ccc2c(c1)OCO2 | -17.8
63 | CCC(C(=O)OCCN(CC)CC)c1ccccc1.O=C(O)CC(O)(CC(=O)O)C(=O)O (stereo not drawn) | 4.45
64 | COc1ccccc1OCCNC(=O)C(CCSC)NC(=O)COc1ccccc1 (stereo not drawn) | -27.7
65 | CC(=O)Nc1ccc(NC(=O)c2ccccc2N(C)S(C)(=O)=O)cc1 | 9.15
66 | CCOC(=O)/C(=C\C=C1/Sc2ccccc2N1CC)C(C)=O | -19

Row | Structure (SMILES) | hERG current change (%, negative = inhibition) at 10uM [%]
67 | COc1ccc(OCC(=O)Nc2ccccc2Cl)cc1 | 13.7
68 | Cc1cc(C)cc(C(=O)Nc2ccc(N3CCN(S(C)(=O)=O)CC3)cc2)c1 | 15.7
69 | CCCN(CC(=O)Nc1ccccc1C)C(=O)c1ccc(N2CCCCC2)c([N+](=O)[O-])c1 | -43.7
70 | CCOn1c(=O)c(-c2cccc(Br)c2)[n+]([O-])c2ccccc21 | 3.23
71 | COCC(=O)N1CCC(n2nccc2NC(=O)CCOc2ccccc2)CC1 | 17.4
72 | COc1cc(Cl)c(C)cc1NC(=O)CSc1ccc(NC(C)=O)cc1 | 0.375
73 | CCCn1nc([N+](=O)[O-])c(C(C#N)c2nc3ccccc3o2)c(Cl)c1=O (stereo not drawn) | 19.5
74 | CN(C)CC#CCOC(c1ccccc1)c1ccccc1.Cl | -16.1
75 | COc1cc2c(cc1OC)C(c1cccs1)NCC2 (stereo not drawn) | 1.72
76 | COc1cc2c(-c3cc(F)cc(F)c3)c(-c3ccsc3)oc(=O)c2cc1OC | 9.35
77 | CCN1C(=O)/C(=C/c2ccc(N(CC)CC)cc2OC)C(=O)NC1=S | 3.26
78 | COc1ccc(C(=O)Nc2ccc3c(c2)Cc2ccccc2-3)cc1 | 17.1
79 | O=C(Nc1ccc(-c2csc(Nc3cccc(C(F)(F)F)c3)n2)cc1)c1cc([N+](=O)[O-])cc(C(F)(F)F)c1 | 0.0561
80 | COc1ccc(CCn2c(O)c(C=NCc3ccc4c(c3)OCO4)c(=O)[nH]c2=O)cc1OC | -9.79
81 | O=C1CCCCCC1C1(O)C(=O)Nc2ccccc21 (stereo not drawn) | -1.78
82 | C#CCOCCOCCOCCNc1nc(N2CCN(C(=O)Cn3cc(CCC[NH+]=C(N)N)nn3)CC2)nc(N2CCN(C(=O)[C@H](CCCC[NH3+])n3cc(CCCC)nn3)CC2)n1.[Cl-] | 7.39
83 | Cc1ccc(C(=O)N/C(=C\c2ccc(-c3cccc([N+](=O)[O-])c3)o2)C(=O)NC(C)(C)C)cc1 | 1.94
84 | COc1ccc(NC(=S)Nc2cccc(S(=O)(=O)N3CCCCC3)c2)cc1 | -12
85 | COc1ccc(-c2noc(-c3ccccc3C(=O)NCc3ccco3)n2)cc1 | 3.2
86 | O=C(NCc1ccc(F)cc1)c1cc2c(s1)CCCC2 | -7.45
87 | CN(C)CCNC(=S)Nc1ccc(-c2nc3ccccc3[nH]2)cc1 | -4.03
